Series [1] deals with MT-2 cells. The series is described as follows: Cytotoxicity observed in the antiretroviral assay. As to conditions: concentrations 1, 0.1, 0.01 and 0.001 μM.
Series [2] relates to HIV-1 MDR/C (X4). The series is described as follows: microbe, parasite or virus in culture. In kind it is cell-based. To be noted: for IC50: read-out: IC50 (nM) values.
Series [3] addresses HIV-1 protease (Human immunodeficiency virus type 1 group M subtype B (isolate HXB2) (HIV-1), UniProt P04585). The series is described as follows: HIV-1 protease enzyme inhibitory assay (protocol of Toth and Marshall). In kind it is biochemical.
The subject of series [4] is HIV-1ERS104pre (wild-type clinical X4 isolate). Briefly: Antiviral assay in PHA-PBMC, inhibition of p24Gag production. In kind it is cell-based. As to conditions: for IC50: read-out: IC50 (nM) values.
Series [5] has as its system HIV-1 MDR/A (X4). Briefly: microbe, parasite or virus in culture. Format: cell-based. As to conditions: for IC50: read-out: IC50 (nM) values.
Series [6] deals with HIV-1-LAI. Briefly: Antiviral assay in MT-2 cells, inhibition of HIV-1-elicited cytopathic effect. Format: cell-based. In general terms: Damage to the host cells serves as the signal in cytopathic effect assays.
The subject of series [7] is HIV-1 MDR/JSL (R5). The series is described as follows: microbe, parasite or virus in culture. In kind it is cell-based. To be noted: for IC50: read-out: IC50 (nM) values.
Series [8] concerns HIV-1 MDR/G (X4). Briefly: microbe, parasite or virus in culture. In kind it is cell-based. As to conditions: for IC50: read-out: IC50 (nM) values.
The test system of series [9] is HIV-1 MDR/MM (R5). The series is described as follows: microbe, parasite or virus in culture. Format: cell-based. As to conditions: for IC50: read-out: IC50 (nM) values.
Series [10] deals with HIV-1 MDR/TM. The series is described as follows: microbe, parasite or virus in culture. Format: cell-based. To be noted: for IC50: read-out: IC50 (nM) values.
In series [11] the test system is HIV-1 MDR/B. Briefly: microbe, parasite or virus in culture. To be noted: for IC50: read-out: IC50 (nM) values. In kind it is cell-based.
The test system of series [12] is multi-drug-resistant clinical HIV-1 isolates. Briefly: Antiviral assay in PBMCs, multi-drug-resistant clinical isolates stated collectively. Format: cell-based. As to conditions: most of / all multi-drug-resistant clinical isolates examined, read-out: IC50 values against the multi-drug-resistant clinical isolates examined.
Where [13] appears, read: Human immunodeficiency virus 1, PBMC.
Where [14] appears, read: Table 3, means of at least two experiments.
The mark [15] stands for this setting: Human immunodeficiency virus 1, T-lymphoid, MT-2 human T-lymphoid cells exposed to HIV-1-LAI.
Where [16] appears, read: Human immunodeficiency virus 1, T-lymphoid, MT-2 human T-lymphoid cells exposed to HIV-1LAI.
Where [17] appears, read: Human immunodeficiency virus 1, PBMC, HIV-1 ERS104pre (wild-type, X4), p24Gag production.
[18] abbreviates: Table 1, mean values of at least four determinations.

Where “and” joins values, the source holds several entries; their conditions need not be identical. Equal entries are not always repeated. Where two headings read alike, the source gives them in different places. Some results are limits rather than exact numbers.

On to `COc1ccc(S(=O)(=O)N(CC(C)C)C[C@@H](O)[C@H](Cc2ccccc2)NC(=O)O[C@H]2CCOCOC2)cc1` [Inhibitor 3b, (1S,2R)-{1-Benzyl-2-hydroxy-3-[isobutyl(4-methoxybenzenesulfonyl)amino]propyl}carbamic acid (1S)-3,5-Dioxacycloheptan-1-yl ester], for which the cytotoxicity result in series [1] is “no cytotoxicity was observed”.

What is called IC50 is the concentration needed to halve the response being measured. One may read the Ki as the dissociation constant of the complex between target and ligand, obtained from inhibition or displacement. Read a low Ki as higher affinity. As to `COc1ccc(S(=O)(=O)N(CC(C)C)C[C@@H](O)[C@H](Cc2ccccc2)NC(=O)OC2CC3OCO[C@@H]3C2)cc1` (stereo partly drawn) [Inhibitor 102, (1′S,2′R)-{1′-Benzyl-2′-hydroxy-3′-[isobutyl(4-methoxybenzenesulfonyl)amino]propyl} carbamic acid (1β,2β,4β)-1,2-(methylenedioxy)cyclopent-4-yl ester], the IC50 in series [2] (setting [13]) was determined as 300 nM; in series [4] (setting [13]), 29 nM; in series [5] (setting [13]) it was 21 nM; in series [6] (setting [15]), 3.8 nM; in series [6] (setting [16]) it was 3.8 ± 0.1 nM; in [7] (setting [13]) it was 550 nM. In addition, the results for the IC50 in series [8] (setting [13]) and in series [9] (setting [13]) were 340 nM and 150 nM, respectively. Further, the “value in parentheses (fold change of IC50 vs wild-type ERS104pre)” value in series [2] (PBMC, MDR/C (X4)) came to 10; in series [5] (PBMC, MDR/A (X4)) it was 1; in [7] (PBMC, MDR/JSL (R5)), 19; in series [8] (PBMC, MDR/G (X4)), 12; in series [9] (PBMC, MDR/MM (R5)), 5. The compound also returned a Ki in [3] (setting [14]) of 0.11 to 0.12 nM. Further, the “IC50 value in PBMCs greater than IC50 value in MT-2 cells, factor” value in series [4] (PBMC (HIV-1ERS104pre) vs MT-2 (HIV-1LAI)) was about 8 fold.

For the compound `CC(C)(C)NC(=O)[C@@H]1CN(Cc2cccnc2)CCN1C[C@@H](O)C[C@@H](Cc1ccccc1)C(=O)N[C@H]1c2ccccc2C[C@H]1O` [IDV, Indinavir], the IC50 in series [2] (setting [13]) is over 1000 nM; in series [10] (setting [13]) it was over 1000 nM; in [4] (setting [17]) it was 26 nM; in [5] (setting [13]), over 1000 nM; in series [11] (setting [13]), over 1000 nM; in series [6] (Human immunodeficiency virus 1, T-lymphoid, MT-2 human T-lymphoid cells exposed to HIV-1LAI, read-out: IC50), 30 nM. The IC50 in series [7] (setting [13]) is over 1000 nM; in series [8] (setting [13]) it was 290 nM; in series [9] (setting [13]) it was over 1000 nM. Besides, the “value in parentheses (fold change of IC50 vs wild-type ERS104pre)” value is recorded as over 38 in [2] (PBMC, MDR/C (X4)); over 38 in [10] (PBMC, MDR/TM); over 38 in series [5] (PBMC, MDR/A (X4)); over 38 in [11] (PBMC, MDR/B); over 38 in [7] (PBMC, MDR/JSL (R5)); 11 in series [8] (PBMC, MDR/G (X4)). Also, in [9] (PBMC, MDR/MM (R5)), the “value in parentheses (fold change of IC50 vs wild-type ERS104pre)” value is over 38.

With `CC(C)c1nc(CN(C)C(=O)N[C@H](C(=O)N[C@@H](Cc2ccccc2)C[C@H](O)[C@H](Cc2ccccc2)NC(=O)OCc2cncs2)C(C)C)cs1` [RTV], the “value in parentheses (fold change of IC50 vs wild-type ERS104pre)” value was over 29 in [2] (PBMC, MDR/C (X4)); over 29 in [10] (PBMC, MDR/TM); over 29 in series [5] (PBMC, MDR/A (X4)); over 29 in series [11] (PBMC, MDR/B); over 29 in [7] (PBMC, MDR/JSL (R5)); over 29 in series [8] (PBMC, MDR/G (X4)). In addition, in series [9] (PBMC, MDR/MM (R5)), the “value in parentheses (fold change of IC50 vs wild-type ERS104pre)” value is over 29. In addition, the IC50 in series [2] (PBMC, MDR/C (X4), p24Gag production) was over 1000 nM; in series [10] (PBMC, MDR/TM, p24Gag production), over 1000 nM; in [12] it was over 1000 nM; in [4] (PBMC, HIV-1 ERS104pre (wild-type, X4), p24Gag production), 34 nM; in [5] (PBMC, MDR/A (X4), p24Gag production) it was over 1000 nM; in series [11] (PBMC, MDR/B, p24Gag production), over 1000 nM. In addition, the IC50 in series [7] (PBMC, MDR/JSL (R5), p24Gag production) is over 1000 nM; in series [8] (PBMC, MDR/G (X4), p24Gag production), over 1000 nM; in series [9] (PBMC, MDR/MM (R5), p24Gag production), over 1000 nM.

Consider `COc1ccc(S(=O)(=O)N(CC(C)C)C[C@@H](O)[C@H](Cc2ccccc2)NC(=O)OC2COCCOCCOC2)cc1` [Inhibitor 3i, (1S,2R)-{1-Benzyl-2-hydroxy-3-[isobutyl(4-methoxybenzenesulfonyl)amino]propyl}carbamic acid 3,6,9-trioxacyclodecan-1-yl ester], for which, in series [3] (setting [18]), the Ki was 16 ± 2.2 nM.

As for `COc1ccc(S(=O)(=O)N(CC(C)C)C[C@@H](O)[C@H](Cc2ccccc2)NC(=O)OC2CC3OCCO[C@@H]3C2)cc1` (stereo partly drawn) [Inhibitor 103, (1′S,2′R)-{1′-Benzyl-2′-hydroxy-3′-[isobutyl(4-methoxybenzenesulfonyl)amino]propyl} carbamic acid (1β,2β,4β)-1,2-(ethylenedioxy)cyclopent-4-yl ester], the IC50 in [6] (setting [15]) stood at 170 nM; in series [6] (setting [16]), 170 nM; in [6] (MT-2 human T-lymphoid cells exposed to HIV-1LAI), 210 nM.

Take `COc1ccc(S(=O)(=O)N(CC(C)C)C[C@@H](O)[C@H](Cc2ccccc2)NC(=O)OC2CC3OCOCO[C@@H]3C2)cc1` (stereo partly drawn) [Inhibitor 128, (1′S,2′R)-{1′-Benzyl-2′-hydroxy-3′-[isobutyl(4-methoxybenzenesulfonyl)amino]propyl} carbamic acid (5aα,7a,8aα)-tetrahydrocyclopenta[f]-1,3,5-trioxaepan-7-yl ester]: the Ki in [3] (setting [14]) was 0.5 nM and 0.51 nM. The compound also gave an IC50 in series [6] (setting [16]) of 380 ± 20 nM.

As to `COc1ccc(S(=O)(=O)N(CC(C)C)C[C@@H](O)[C@H](Cc2ccccc2)NC(=O)O[C@H]2CC3OCOCO[C@@H]3C2)cc1` (stereo partly drawn) [Inhibitor 127, (1S,2R)-{1′-Benzyl-2′-hydroxy-3′-[isobutyl(4-methoxybenzenesulfonyl)amino]propyl} carbamic acid (5aα,7β,8aα)-tetrahydrocyclopenta[f]-1,3,5-trioxaepan-7-yl ester], in series [3] (setting [14]), affinity was put at a Ki of 5.4 ± 0.22 nM. In series [6] (setting [16]), this compound gave an IC50 of over 1000 nM.

Take `COc1ccc(S(=O)(=O)N(CC(C)C)C[C@@H](O)[C@H](Cc2ccccc2)NC(=O)OC2COCOC2)cc1` [Inhibitor 3h, (1S,2R)-{1-Benzyl-2-hydroxy-3-[isobutyl(4-methoxybenzenesulfonyl)amino]propyl}carbamic acid 1,3-dioxan-5-yl ester]: the IC50 is 160 nM in series [2] (setting [13]); 64 nM in series [10] (setting [13]); 6 nM in series [4] (setting [13]); 13 nM in series [5] (setting [13]); 230 nM in [11] (setting [13]); 3.4 nM in series [6] (setting [15]). In addition, the IC50 in series [7] (setting [13]) was found to be 330 nM; in series [8] (setting [13]) it was 300 nM. Further, the “value in parentheses (fold change of IC50 vs wild-type ERS104pre)” value in [2] (PBMC, MDR/C (X4)) came to 27; in series [10] (PBMC, MDR/TM), 10; in series [5] (PBMC, MDR/A (X4)), 2; in [11] (PBMC, MDR/B), 38; in series [7] (PBMC, MDR/JSL (R5)), 55; in series [8] (PBMC, MDR/G (X4)), 50. In series [3] (setting [18]), this compound yielded a Ki of 0.041 ± 0.002 nM. For the same compound, the cytotoxicity result in [1] was “no cytotoxicity was observed”.

Take `CC(C)CN(C[C@@H](O)[C@H](Cc1ccccc1)NC(=O)O[C@H]1CCOC1)S(=O)(=O)c1ccc(N)cc1` [APV, amprenavir]: the IC50 amounted to 230 nM in [2] (setting [13]); 290 nM in series [10] (setting [13]); 33 nM in series [4] (setting [17]); 100 nM in series [5] (setting [13]); 320 nM in series [11] (setting [13]); 430 nM in series [7] (setting [13]). The figures for the IC50 in series [8] (setting [13]) and in series [9] (setting [13]) were 340 nM and 300 nM, respectively.

With `CC(C)CN(C[C@@H](O)[C@H](Cc1ccccc1)NC(=O)OC1CC2OCO[C@@H]2C1)S(=O)(=O)c1ccc(CO)cc1` (stereo partly drawn) [Inhibitor 130, (1′S,2′R)-{1′-Benzyl-2′-hydroxy-3′-[isobutyl(4-(hydroxymethyl)benzenesulfonyl)amino]propyl} carbamic acid (1β,2β,4β)-1,2-(methylenedioxy)cyclopent-4-yl ester], the affinity in series [3] (setting [14]) corresponds to a Ki of 0.34 ± 0.07 nM. The compound also showed an IC50 in series [6] (setting [16]) of 7.7 ± 3 nM.

Take `CC(C)(C)NC(=O)[C@@H]1C[C@@H]2CCCC[C@@H]2CN1C[C@@H](O)[C@H](Cc1ccccc1)NC(=O)[C@H](CC(N)=O)NC(=O)c1ccc2ccccc2n1` [SQV, saquinavir]: the IC50 was 36 nM in [2] (setting [13]); 12 nM in [4] (setting [13]); 81 nM in [5] (setting [13]); 330 nM in [7] (setting [13]); 29 nM in series [8] (setting [13]); 190 nM in [9] (setting [13]).

For the origin of these results see US8501961B2, “HIV protease inhibitors and methods for using” (priority 2008, dated 2013).
